Among the data in US20160152714A1 (Chugai, published 2016) are Activity values, retold here.

This test concerns the target T1, soluble IL-6 receptor (UniProt P08887 20-344, limits assumed).
T1 construct: The background says soluble IL-6R consists mainly of the extracellular region
T1 sequence (looked up): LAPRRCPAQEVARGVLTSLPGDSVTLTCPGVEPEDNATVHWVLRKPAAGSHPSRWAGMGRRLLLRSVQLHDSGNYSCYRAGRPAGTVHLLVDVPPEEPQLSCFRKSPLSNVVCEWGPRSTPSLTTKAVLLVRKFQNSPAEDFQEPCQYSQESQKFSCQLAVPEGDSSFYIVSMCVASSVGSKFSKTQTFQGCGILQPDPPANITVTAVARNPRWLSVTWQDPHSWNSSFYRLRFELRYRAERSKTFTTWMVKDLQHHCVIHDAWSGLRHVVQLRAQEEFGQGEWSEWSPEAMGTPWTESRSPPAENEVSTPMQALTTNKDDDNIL
Put plainly: competition ELISA on captured soluble IL-6 receptor, competitor biotinylated MRA; parallel line test (3+3). (An ELISA detects its analyte on a solid surface through an enzyme-linked reagent.)

B1: humanized PM-1 antibody subtype 1 (antibody, human IgG1, kappa)
heavy 1: QVQLQESGPGLVRPSQTLSLTCTVSGYSITSDHAWSWVRQPPGRGLEWIGYISYSGITTYNPSLKSRVTMLRDTSKNQFSLRLSSVTAADTAVYYCARSLARTTAMDYWGQGSLVTVSS[human IgG1 constant region not spelt out]
heavy 2: QVQLQESGPGLVRPSQTLSLTCTVSGYSITSDHAWSWVRQPPGRGLEWIGYISYSGITTYNPSLKSRVTMLRDTSKNQFSLRLSSVTAADTAVYYCARSLARTTAMDYWGQGSLVTVSS[human IgG1 constant region not spelt out]
light: DIQMTQSPSSLSASVGDRVTITCRASQDISSYLNWYQQKPGKAPKLLIYYTSRLHSGVPSRFSGSGSGTDFTFTISSLQPEDIATYYCQQGNTLPYTFGQGTKVEIKRTVAAPSVFIFPPSDEQLKSGTASVVCLLNNFYPREAKVQWKVDNALQSGNSQESVTEQDSKDSTYSLSSTLTLSKADYEKHKVYACEVTHQGLSSPVTKSFNRGEC
modifications: C-terminal Pro-NH2 (447), Gly 448 lost
notes: Only one of the two heavy chains is amidated (C-terminal SLSLSP-NH2), the other ends in SLSLSPG; The N-terminal Gln of the heavy chain 'may be' pyroglutamylated
Turning to B1, the Activity came to 1130.
